Experimental findings from PubChem BioAssay AID1745853 (National Center for Advancing Translational Sciences (NCATS), 2022) are described below.

The other results are listed elsewhere or left out. Further columns of the screen follow, without active or inactive calls.

What all share (test): Primary Screen for Target Class Profiling of Small Molecule Inhibitors of Methyltransferases
Assay [1] has as its target Glycine N-methyltransferase (Homo sapiens) (UniProt Q14749). The following applies: purified enzyme, MTase-Glo SAH luminescence; measured here: GNMT inhibition; at 40 µM; stronger effect = lower value. The essentials:
(§1)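 Each enzyme was reacted with SAM and its substrate, with compounds tested once at 40 uM; SAH formed was read by MTase-Glo luminescence.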

Assay [2] concerns the target Guanidinoacetate N-methyltransferase (Homo sapiens) (UniProt Q14353). The note with it: purified enzyme, MTase-Glo SAH luminescence; measured here: GAMT inhibition; at 40 µM; stronger effect = lower value. In outline: as §1
The target of assay [3] is Histamine N-methyltransferase (Homo sapiens) (UniProt P50135). The following applies: purified enzyme, MTase-Glo SAH luminescence; measured here: HNMT inhibition; at 40 µM; stronger effect = lower value. In outline:
as §1

Assay [4] deals with Nicotinamide N-methyltransferase (Homo sapiens) (UniProt P40261). The following applies: purified enzyme, MTase-Glo SAH luminescence; measured here: NNMT inhibition; at 40 µM; stronger effect = lower value. In outline: as §1
The target of assay [5] is Phenylethanolamine N-methyltransferase (Homo sapiens) (UniProt P11086). The note with it: purified enzyme, MTase-Glo SAH luminescence; measured here: PNMT inhibition; at 40 µM; stronger effect = lower value. In outline: as §1
On the % scale 0 is the no-effect control and ±100 the full control effect.

With `CC(C)CCNC(=O)C1(C)Cn2nc(C(=O)NCc3cccnc3)cc2C(=O)N1C` (stereo not given), the activity change, negative = inhibition in assay [1] is 1.86%; in assay [2], 4.96%; in assay [3], 1.5%; in assay [4] it was 3.87%; in assay [5], 0.486%.
On to `CCCN1C(=O)c2c(C(=O)NCc3ccccc3)ncn2CC1(C)C(=O)NCCC(C)C` (stereo not given), for which the activity change, negative = inhibition in assay [1] came out at 4.87%; in assay [2], 1.05%; in assay [3] it was 9.98%; in assay [4], 0.126%; in assay [5], 11.3%.
The corresponding values for `O=C(O)[C@@H]1CN(C(=O)Cc2ccc(O)cc2)C[C@H]1c1cccc(F)c1` are -4.76%, -5.33%, -1.58%, -3.42% and -5.22%.
On to `Cc1ccc(S(=O)(=O)NC[C@H]2OC[C@@H](N(C)C)[C@@H]2O)cc1`, for which the activity change, negative = inhibition in assay [1] was -1.87%; in assay [2], -2.05%; in assay [3], 0.601%; in assay [4] it was -3.7%; in assay [5] it was -1.43%.
As for `CCOc1ccccc1NC(=O)N1CCCCC1CCn1cc(C(=O)NCC2CC2)nn1` (stereo not given), the activity change, negative = inhibition in assay [1] was -0.97%; in assay [2] it was 2.32%; in assay [3] it was 2.52%; in assay [4], -4.31%; in assay [5], 12.4%.
Regarding `CCCn1c(=O)c2ccccc2n2c(=O)n(Cc3cccc(Cl)c3)nc12`, the activity change, negative = inhibition in assay [1] was -5.55%; in assay [2], 3.48%; in assay [3] it was 1.18%; in assay [4] it was -5.38%; in assay [5] it was -0.725%.
For `CCCS(=O)(=O)Nc1ccc(F)c(C(=O)c2c[nH]c3ncc(Cl)cc23)c1F`, the activity change, negative = inhibition is -17.5% in assay [1]; -2.03% in assay [2]; 5.36% in assay [3]; -19.6% in assay [4]; -4% in assay [5].
Consider `CCOc1ccccc1CN1C(=O)c2cc3sccc3n2CC1(C)C(=O)NC1CCCC(C)C1C` (stereo not given), for which the activity change, negative = inhibition was -4.96% in assay [1]; 3.6% in assay [2]; -4.96% in assay [3]; 2.34% in assay [4]; -2.49% in assay [5].
On to `COc1ccc(OC)c(CN2CCNc3cc(-c4ccnc(C)c4)ncc3C2)c1`, for which the activity change, negative = inhibition in assay [1] was -33.7%; in assay [2], -11.5%; in assay [3], -93.8%; in assay [4], -38.5%; in assay [5] it was -8.34%.
Regarding `CCOC(=O)c1cc2n(n1)CC(C)(C(=O)NC1CCCCC1)N(Cc1ccc3c(c1)OCO3)C2=O` (stereo not given), the activity change, negative = inhibition in assay [1] was -0.258%; in assay [2], 4.89%; in assay [3], -15.7%; in assay [4] it was -0.749%; in assay [5], 3.21%.
As for `O=c1[nH]c(-c2ccc(C(F)(F)F)cc2)nc2c1CSCC2`, the activity change, negative = inhibition in assay [1] is 0.059%; in assay [2], -15.9%; in assay [3], 8.54%; in assay [4], -24.1%; in assay [5], -4.03%.
The corresponding values for `COc1ccc(Nc2nc3c(S(=O)(=O)c4ccc(F)cc4)nnn3c3ccccc23)cc1` are -0.008%, 2.38%, 4.06%, 4.17% and -1.35%.
With `COc1ccc(CCNC(=O)CCCc2nnc3n4nc(C)nc4c4ccccc4n23)cc1OC`, the activity change, negative = inhibition in assay [1] was -7.65%; in assay [2] it was 5.25%; in assay [3] it was 5.01%; in assay [4], 9.16%; in assay [5], -0.725%.
Turning to `Cc1csc(NC(=O)[C@@H]2C[C@@H](c3ccc(F)cc3)N([S+](=O)([O-])c3cccnc3)C2)n1`, the activity change, negative = inhibition in assay [1] is -8.12%; in assay [2], -3.53%; in assay [3], -1.35%; in assay [4], -12.6%; in assay [5] it was 7.23%.
`CCn1nc(C(C)C)cc1C(=O)N1C[C@@H]2CCN(C)C[C@]2(C(=O)O)C1`: the activity change, negative = inhibition in assay [1] was -6.84%; in assay [2], -8.12%; in assay [3] it was -3.6%; in assay [4] it was -9.29%; in assay [5] it was 7.5%.
Consider `CC(CCc1ccccc1)NC(=O)Cn1ccc2cc(S(=O)(=O)N3CCCCC3)ccc21` (stereo not given), for which the activity change, negative = inhibition in assay [1] was -3.52%; in assay [2], -0.2%; in assay [3], -4.33%; in assay [4] it was -5.62%; in assay [5], -2.19%.
As for `CCN1CCCC1CNC(=O)c1cc(S(=O)(=O)CC)c(N)cc1OC` (stereo not given), the activity change, negative = inhibition in assay [1] is -0.919%; in assay [2], 10.5%; in assay [3], -2.73%; in assay [4], -5.93%; in assay [5], 0.075%.
As for `CCOC(=O)c1cc2n(n1)CC(C)(C(=O)NC1CCCCC1)N(c1ccc(F)cc1C)C2=O` (stereo not given), the activity change, negative = inhibition in assay [1] was -0.193%; in assay [2] it was 4.43%; in assay [3] it was -4.2%; in assay [4] it was 2.77%; in assay [5] it was 2.21%.
For the compound `CCc1ccc(CNC(=O)c2ncn3c2C(=O)N(C2CC2)C(C)(C(=O)NCc2ccccc2OC)C3)cc1` (stereo not given), the activity change, negative = inhibition in assay [1] is 0.578%; in assay [2] it was 0%; in assay [3], 0.587%; in assay [4], -0.868%; in assay [5] it was 0.969%.
On to `CC(C)Cn1c(=O)c2ccccc2n2c(=O)n(CC(=O)Nc3cccc(F)c3)nc12`, for which the activity change, negative = inhibition in assay [1] was 0.665%; in assay [2], 0%; in assay [3], 8.85%; in assay [4], -2.16%; in assay [5] it was 1.83%.
The corresponding values for `O=C1CN(CC(=O)N2CCC3(CC2)OCCCC3O)C(=O)N1` (stereo not given) are 1.72%, 4.04%, 2.83%, -1.94% and 14.1%.
As to `Nc1ncc(C(=O)N2CCC3(CC2)[C@H](O)C[C@@H]3O)c(C(F)(F)F)n1`, the activity change, negative = inhibition in assay [1] is -2.72%; in assay [2] it was -2.13%; in assay [3], -0.461%; in assay [4], -3.61%; in assay [5] it was 1.63%.
On to `COc1ccc(C(=O)CSc2nnc3n(C)c(=O)c4ccc(C(=O)NC5CCCC5)cc4n23)cc1`, for which the activity change, negative = inhibition in assay [1] is -0.908%; in assay [2], -3.71%; in assay [3], 4.45%; in assay [4] it was -4.34%; in assay [5] it was -12.6%.
For `CCOC(=O)Cc1ccc(NC(=O)N2CCn3c(C)ccc3C2C(C)C)cc1` (stereo not given), the activity change, negative = inhibition in assay [1] was 0.026%; in assay [2] it was 4.21%; in assay [3] it was -9.35%; in assay [4], -7.83%; in assay [5], -4.21%.
As for `CC(C)c1ccc2c(c1)C(O)CC1C(C)(CO)CCCC21C` (stereo not given), the activity change, negative = inhibition in assay [1] was 2.57%; in assay [2], 5.96%; in assay [3] it was 13%; in assay [4], -11.7%; in assay [5], 3.17%.
Take `CN(C)C(=O)CCC(=O)N1CC[C@@](C)(O)[C@@H](Cc2ccccc2)C1`: the activity change, negative = inhibition in assay [1] is -7.64%; in assay [2], -16.2%; in assay [3], -3.1%; in assay [4], -13.5%; in assay [5] it was -7.09%.
As for `COc1cccc([C@@H]2CN(C(=O)c3oc(C)nc3C)C[C@H]2C(=O)O)c1OC`, the activity change, negative = inhibition was -2.83% in assay [1]; -4.84% in assay [2]; -1.9% in assay [3]; -12.7% in assay [4]; 10.4% in assay [5].
On to `CC(C)(C)NC(=O)Nc1cccc(Nc2ncc(F)c(NC(C)(C)CO)n2)c1`, for which the activity change, negative = inhibition in assay [1] is -22%; in assay [2] it was 4.3%; in assay [3], 2.87%; in assay [4], -16.4%; in assay [5], 0.268%.
The corresponding values for `CCOCCCN1C(=O)c2cc(-c3ccc(OC)cc3)nn2CC1(C)C(=O)NCc1ccccc1` (stereo not given) are 1.66%, 3.16%, 1.82%, 6.47% and -0.106%.
In the case of `Cn1c(=O)c2ccc(C(=O)NC3CCCCC3)cc2n2c(=O)n(CC(=O)c3ccccc3)nc12`, the activity change, negative = inhibition in assay [1] is -2.9%; in assay [2] it was -4.78%; in assay [3] it was 0.056%; in assay [4], -6.17%; in assay [5] it was -6.47%.
